# From paper PMC12136788
# The list shows a part of the results.
# B1: chr1:93346344:93346492:+|5pUTR|ENSG00000117505|unk|FALSE|unique (ssRNA)
# RNA: GGGAGUUCUACAGUCCGACGAUCGCCGCUCAAAUUUCCGGACCACCGCGCUUUCCCCUCCUCAGCCUGGGCUGUGCUCUCUCUAGAAUCCUCGGGCCCCCACUUUCUUCCCAAACUCAUCCUAAAUCUCUCACACACGCGAGUCAACAGAGGAUUGAGCAUCA
# B2: chr11:101890673:101891278:-|three_prime_utr|ENSG00000187151|control|control|control (ssRNA)
# RNA: GGGAGUUCUACAGUCCGACGAUCGUAAUGCAAGUUCUACAAUGAUAAUAUAUUAAAGAUUUUUAAAAGUUUAUCUUUUCACUUAGUGUUUCAAACAUAUUAGGCAAAAUUUAACUGUAGAUGGCAUUUAGAUGUUAUGAGUUUCAACAGAGGAUUGAGCAUCA
# B3: chr7:114979563:114979664:+|CDS|ENSG00000135272|unk|total|mutant (ssRNA)
# RNA: GGGAGUUCUACAGUCCGACGAUCCCAACCUCAGCGCUUGCCUCAGCUUCAGACUUCAGCCCAGGUGCCAAGUGGUGAGGAAACCGGCAAGAUAAAGAACGGCCACACAGGUCUGAGCAAUGGAAAUGGAAUUCACCACGGGGCCAACAGAGGAUUGAGCAUCA
# B4: chr1:17067390:17067767:-|3pUTR|ENSG00000117115|msi1|total|mutant (ssRNA)
# RNA: GGGAGUUCUACAGUCCGACGAUCCCCAACAUGCAAAGCCCACAUUUAAAGGCCAGCCUCUGCCCCUUCAGUGAUGCGCUCUUCCGAAAUGCCAGUCCACUAUAUUCAGAAAUCCGCAGGGCACAAAACUUCCAGCAAGUCACUCAACAGAGGAUUGAGCAUCA
# B5: chr1:93152962:93153063:-|3pUTR|ENSG00000117500|msi1|total|mutant (ssRNA)
# RNA: GGGAGUUCUACAGUCCGACGAUCGCUGGAAUUCUUGAUGAGCAAUAAUGAUAACCAGAGAGUGAUUUCAUUUACACUCACCGCCGUAUAAAAAGAGAUACAUUUCCCUCUCCGGCCCCUGGGAGAAGAGCAGCUCCGAUUUCCCAACAGAGGAUUGAGCAUCA
# B6: ENSG00000124766:be:win_2851|3pUTR|ENSG00000124766|bound_else_gene|NA|bound_elsewhere_windowed (ssRNA)
# RNA: GGGAGUUCUACAGUCCGACGAUCUAAUCAGAUGCCAUUUUAUAUGUGGACGUAUUUAUACUGGCCAAACAUAUUUUUUCUUUUGUCCCUUUUUUUCUUUCCUUUCUUUUUACUUCCUUUAUUUCUUUAUUCCUUCCUUUUCCUCAACAGAGGAUUGAGCAUCA
# B7: chr13:108210031:108210147:-|CDS|ENSG00000174405|unk|FALSE|unique (ssRNA)
# RNA: GGGAGUUCUACAGUCCGACGAUCAUGGUUAAUAAUAAAAAGCUAGGGCAUGAGACUCUGAGAAAGAGGUAUGAGAUUCUUAGUAGUAUUUUUACACCAAUUCCAGGUAGAAUAGAAAUAGUGCAGAAAACACAAGCUCAUACUCAACAGAGGAUUGAGCAUCA
# B8: chr12:129073877:129075059:-|CDS|ENSG00000151952|control|control|control (ssRNA)
# RNA: GGGAGUUCUACAGUCCGACGAUCACCUUCACCGCCGUCUCCUCAGACGACGAGUACCCCACCAGGAACUCCAUCGUGAUGAGUAGCGAGGAUGACAUUAAGUGGGUCUGCCAGGAUCUGGACCCUGGGGACUGCAAAGAGCUGCAACAGAGGAUUGAGCAUCA
# B9: chr14:101901747:101901860:+|CDS|ENSG00000078304|unk|FALSE|unique (ssRNA)
# RNA: GGGAGUUCUACAGUCCGACGAUCCUGGCCAAAGACUCACAGUCCAAAAGAAGUAAUGUUCUUAAACGAAUUAGAAGAGAUUUUAGAUGUCAUUGAACCAUCAGAAUUUGUGAAGAUCAUGGAACCCCUCUUCCGGCAGUUGGCCAACAGAGGAUUGAGCAUCA
# B10: chr4:48498090:48498191:-|3pUTR|ENSG00000075539|msi1|FALSE|bound_elsewhere (ssRNA)
# RNA: GGGAGUUCUACAGUCCGACGAUCAGGAAGCCUGAAGACUGACUACCAAAACAUGCAAUAUACUUAUUCACUGUCUAAGUCUGUAGUAUAACAUGAACUGGAGUCUCUAUCCUUUUCUAAAAUCGCAUUUUGUAAGAAAAGAAACAACAGAGGAUUGAGCAUCA
# B11: chr1:100520103:100520216:+|3pUTR|ENSG00000079335|unk|FALSE|unique (ssRNA)
# RNA: GGGAGUUCUACAGUCCGACGAUCUUACACAUGUGCCUACAUAGACACACCAAGAAGUGGAUGUAUAUAAUAUAGAAAGUAUAUAGCAAAGUAAUUUUACUCUGAUAAUAAAAAUUGUUUGACAUGUAUUUUGUUAUGAAUAGUCAACAGAGGAUUGAGCAUCA
# B12: chr5:40972473:40972581:+|CDS|ENSG00000112936|unk|FALSE|unique (ssRNA)
# RNA: GGGAGUUCUACAGUCCGACGAUCAAAACCUUUCUACACAGUUGGUGAGAAGGUGACUGUUUCCUGUUCAGGUGGCAUGUCCUUAGAAGGUCCUUCAGCAUUUCUCUGUGGCUCCAGCCUUAAGUGGAGUCCUGAGAUGAAGAACAACAGAGGAUUGAGCAUCA
# B13: chr9:124878635:124878736:-|3pUTR|ENSG00000136935|msi1|total|mutant (ssRNA)
# RNA: GGGAGUUCUACAGUCCGACGAUCCCAGCCAUUGAACUGGUCCCACACGCACCCCAGGCCCCACUCCUCGGCAGUUUCAGGUGCCGCUGUGGGGCCCGUUCCCCGGUCUGUACUCACUUCCGGGAGGCUUCACUGACCCGGCUUCAACAGAGGAUUGAGCAUCA
# B14: chr2:201645282:201645383:-|CDS|ENSG00000082126|unk|FALSE|unique (ssRNA)
# RNA: GGGAGUUCUACAGUCCGACGAUCUACUAUCCAUAUUUUUCUAUUUCUCCUAAAGGAUGAAGACCUACAAGAGAUGGAAAAUUUAGCCCAAAGAAUGGAAACUCAGUUUGGCCAAUUUUUUGAUCAUGUGAUUGUGAAUGACAGCAACAGAGGAUUGAGCAUCA
# B15: chr17:50110931:50111032:+|3pUTR|ENSG00000005882|unk|total|mutant (ssRNA)
# RNA: GGGAGUUCUACAGUCCGACGAUCUGUGCCCAGACAUGUGUGCUCAGGGUGGCUUUCUCCCCCGGACCUUCUGUGUAUACCGUCCGUUUUAUAACCCUGAAUGCCCCCACCCUUCCCCUAAGCACACAGGGGUUAAAGCUGUGUCAACAGAGGAUUGAGCAUCA
# B16: chr2:216674221:216674322:-|3pUTR|ENSG00000115461|msi1|FALSE|unique (ssRNA)
# RNA: GGGAGUUCUACAGUCCGACGAUCGCAUGCCCCAUCUCUCUGCACAGCUGUCCCCUAAACCCAACUCACGUUUCUGUAUGUCUUAGGCCAGUAUCCCAAACCUCUUCCACGUCACUGUUCUUUCCACCCAUUCUCCCUUUGCAUCAACAGAGGAUUGAGCAUCA
# B17: chr5:111496093:111496242:-|3pUTR|ENSG00000164211|unk|total|mutant (ssRNA)
# RNA: GGGAGUUCUACAGUCCGACGAUCUUUACAUGUACCGUUAAAUAUUAAAAUUCAUCUCUUGCAGUUCAAUAAAAGCUACCGUACCGAUUUUAUUUUUAAGAAGUUUAUAUAAUUCUUUUGUGAACCAAUAUGUAAAACCCGAAUCAACAGAGGAUUGAGCAUCA
# B18: chr3:62294137:62294238:+|3pUTR|ENSG00000144724|msi1|total|mutant (ssRNA)
# RNA: GGGAGUUCUACAGUCCGACGAUCUGAGACCCUUCCGUUAUUCUCCAUUAAUGCUUCUCCGUUUGUAAUACCAUACCUCACAGCCGGCCGAAGAAUGAAAACUUCUGCAGGUGUGUAAUUUUGAAACCCGUCCUCUAAAAAUUCCAACAGAGGAUUGAGCAUCA
# B19: chr11:108173179:108173289:-|CDS|ENSG00000149308|unk|total|mutant (ssRNA)
# RNA: GGGAGUUCUACAGUCCGACGAUCUGGUUCCAAGUCAUCAGAUUCCCGUGAAGUUCACAAGAGUAAAACCGAAAUUAAUGUGUCCGAACCAGUUAUGUCACAGCUAUCAAAUUGCCAAGAUAAUUCUUGUCUUCAAAGUGAAAUCAACAGAGGAUUGAGCAUCA
# B20: ENSG00000084652:stop:overlap|stop_codon|ENSG00000084652|stop_codon|NA|stop_codon (ssRNA)
# RNA: GGGAGUUCUACAGUCCGACGAUCCACCGAGCACAGAAGCAUCAGGCCAGACUGGGCCUCAAGAGCCCACCUCCGCCAGGGCCUAGAGAGCCUGGUGUUGGGUCAUGCUGGGAAGGGAGCGGCAGCCCAGCCAGGCCUGGCCCACAACAGAGGAUUGAGCAUCA
# B21: chr1:119916538:119916684:-|CDS|ENSG00000134250|unk|total|mutant (ssRNA)
# RNA: GGGAGUUCUACAGUCCGACGAUCAGAGACACCUCUGUUUCUUGCUGCCCGGGAGGGGAGCUAUGAAGCAGCCAAGAUCCUGUCCGACCAUUUUGCCAAUCGAGACAUCACAGACCAUAUGGAUCGUCUUCCCCGGGAUGUGGCCAACAGAGGAUUGAGCAUCA
# B22: chr6:105097214:105097376:-|3pUTR|ENSG00000112276|msi1|FALSE|unique (ssRNA)
# RNA: GGGAGUUCUACAGUCCGACGAUCCAUGCCUUGGUUUCCUCUCCCUUCCCUCUUUCCAAUCCUGGUUUCCUAACCUCCUCUUGUAGUAAUUCUCAACUCAACUCAAAGUCCCAAGAAUUUGGAAUGGUAGGAUGCUGUGCGGGGCAACAGAGGAUUGAGCAUCA
# Target: MSI1 full-length (mouse, UniProt Q61474 1-362)
# Chain of UniProt Q61474 (Q61474 whole entry): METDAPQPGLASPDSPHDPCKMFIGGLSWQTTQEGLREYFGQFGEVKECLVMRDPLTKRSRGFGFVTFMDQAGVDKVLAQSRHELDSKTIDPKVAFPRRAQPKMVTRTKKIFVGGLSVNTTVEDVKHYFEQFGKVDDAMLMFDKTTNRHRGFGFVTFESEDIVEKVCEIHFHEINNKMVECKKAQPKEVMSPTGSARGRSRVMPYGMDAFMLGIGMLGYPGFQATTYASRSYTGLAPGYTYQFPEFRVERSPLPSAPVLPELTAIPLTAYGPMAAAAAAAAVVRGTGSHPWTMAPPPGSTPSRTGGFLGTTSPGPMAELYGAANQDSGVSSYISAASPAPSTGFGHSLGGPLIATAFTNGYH
# Assay: nsRBNS (natural sequence RNA bind-n-seq); RBNS binding buffer (assumed for nsRBNS): 25 mM Tris pH 7.5, 150 mM KCl, 3 mM MgCl2, 0.01% Triton X-100, 500 ug/ml BSA, 20 U/ml SUPERase-In, 4 C; UNK is unkempt and MSI1 is Musashi-1; names of the RNAs are library labels; protein concentration not given here; high values mean tight binding
row,Binder,binding signal [enrichment R]
1,B1,1.22
2,B2,3.72
3,B3,0.447
4,B4,0.72
5,B5,0.498
6,B6,4.25
7,B7,4.73
8,B8,0.538
9,B9,1.68
10,B10,0.279
11,B11,3.97
12,B12,0.339
13,B13,0.386
14,B14,0.512
15,B15,0.524
16,B16,0.888
17,B17,3.85
18,B18,0.604
19,B19,0.203
20,B20,0.587
21,B21,0.446
22,B22,0.653
